# Data published in the BET-seq Pho4 binding data (Le et al. 2018).
# The list shows a part of the results. Values were computed here from the reads of four pooled replicates and scatter widely.
# Molecular target: T1, Pho4 (S. cerevisiae) (UniProt P07270)
# T1 sequence: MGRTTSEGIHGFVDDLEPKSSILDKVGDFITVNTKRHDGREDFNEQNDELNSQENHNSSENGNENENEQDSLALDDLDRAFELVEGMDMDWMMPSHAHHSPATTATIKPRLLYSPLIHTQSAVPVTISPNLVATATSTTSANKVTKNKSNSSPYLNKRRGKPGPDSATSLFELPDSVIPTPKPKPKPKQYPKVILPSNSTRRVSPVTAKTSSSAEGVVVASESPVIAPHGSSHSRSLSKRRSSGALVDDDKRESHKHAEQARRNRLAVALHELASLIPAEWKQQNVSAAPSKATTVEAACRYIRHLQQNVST
# Assay: relative binding free energy (BET-seq); higher = weaker binding
# Details: reference: library average
row,Sequence,relative binding free energy [kcal/mol]
1,GGAGGCACGTGGAACG,-0.13
2,ATGGGCACGTGTCCAG,0.05
3,ATTAGCACGTGATGGT,0.05
4,GTGGACACGTGGATTG,0.01
5,TGAGGCACGTGTATAT,-0.09
6,TATTGCACGTGTGAGC,0.01
7,GCAGGCACGTGGAAGT,0
8,CAGACCACGTGTGGGG,0.03
9,TGGTTCACGTGTATTA,0.16
10,ACGTTCACGTGTGGCG,0.24
11,TCAGACACGTGGGGGT,0
12,ATATTCACGTGGAGTA,0.25
13,CTAGTCACGTGTTGTG,-0.09
14,AGGGTCACGTGAATAG,0.38
15,TAGGACACGTGTGCTG,0.15
16,ATATTCACGTGCTGGT,0.13
17,TGTCCCACGTGGGTGA,-0.21
18,TGCTTCACGTGTATTA,0.01
19,TGTAACACGTGGTTGG,-0.01
20,GGTGTCACGTGGTAAG,-0.01
21,TGGCGCACGTGATGGC,0.04
22,GGCGTCACGTGTGGCA,0.13
23,ATTCTCACGTGTGAGG,0.26
24,GTGGTCACGTGTGATT,0.18
25,AAGGTCACGTGGGATT,0.25
26,ATTAGCACGTGATTGA,0.06

row,Sequence,relative binding free energy [kcal/mol]
1,CGGGGCACGTGGTGGC,-0.23
2,GAGTTCACGTGGCGGG,0.35
3,TGAACCACGTGGGGCG,-0.12
4,ATGAGCACGTGGTGGC,-0.12
5,AACTGCACGTGTGGGA,0.03
6,TTTTGCACGTGGCTGG,-0.08
7,TGGGACACGTGGGTAA,0.02
8,TGTTTCACGTGGGATG,0.24
9,GTATGCACGTGGGCGA,-0.2
10,ATGCACACGTGTTATG,0.14
11,TGGTTCACGTGAATAT,0.3
12,GGTTGCACGTGTATCT,-0.09
13,TTGTGCACGTGATAGC,0.09
14,GTTGTCACGTGACCGG,0.23
15,TGATACACGTGGTTTC,-0.03
16,AGGCACACGTGGGATG,-0.03
17,TTCTTCACGTGTTTTT,0.37
18,GATAGCACGTGTGCGA,0.18
19,TAGTACACGTGAGGTC,0.33
20,TCGTGCACGTGGGTAA,-0.17
21,ATTAACACGTGGAATT,0.05
22,GTGTACACGTGTAGCG,0.16
23,CTTTACACGTGCGCGT,0.15
24,CATCTCACGTGGGTGT,0.16
25,TGAGTCACGTGATTGG,0.2
26,GTGGACACGTGTTCGG,0.03

row,Sequence,relative binding free energy [kcal/mol]
1,GGTGGCACGTGGATTG,-0.04
2,TATCTCACGTGAGGGG,0.35
3,AGGAGCACGTGGTGTT,-0.23
4,ATTGGCACGTGACTTT,-0.02
5,TATTTCACGTGGATTA,0.2
6,GTGCTCACGTGTCAGG,0.31
7,CACGGCACGTGCGGGG,-0.2
8,TGTTGCACGTGCCAGT,-0.15
9,GTACACACGTGGTTTT,0
10,TTATACACGTGTTTAT,0.15
11,GTGCACACGTGTCGGG,-0.02
12,GGTTCCACGTGTGTCT,0.14
13,GTTGGCACGTGACCTG,-0.02
14,TGGCACACGTGTGATG,0.09
15,ATGAGCACGTGGATTA,-0.02
16,CGAGGCACGTGGGTCA,-0.26
17,GGGTTCACGTGGACGG,0.4
18,GGGCGCACGTGTGTCT,-0.01
19,ATAGACACGTGATTGT,0.08
20,AATTACACGTGTGGCG,0.22
21,GGGAACACGTGGAGGC,0.12
22,TATGTCACGTGTAATG,0.15
23,ATGATCACGTGGGTGA,-0.06
24,TTTAACACGTGCGTTG,-0.03
25,GTTTTCACGTGGAGCG,0.3
26,AATGGCACGTGTGACT,-0.05

row,Sequence,relative binding free energy [kcal/mol]
1,CGTTGCACGTGAATGG,0.15
2,AAGGGCACGTGGGATC,-0.17
3,TAGATCACGTGGGAAG,0.13
4,CGCTTCACGTGGTTGG,0.12
5,TGTTTCACGTGCAAAA,0.34
6,AGTGTCACGTGGTGTT,-0.07
7,TCGTTCACGTGGGGGT,0.18
8,AGTGTCACGTGCGTTT,0.03
9,AGTAGCACGTGATCTT,0.19
10,GGTTCCACGTGTTGGC,0.19
11,GTTGGCACGTGAAAGG,0.26
12,TGCGGCACGTGAGTGG,0.09
13,CTGTACACGTGTGTTC,0.18
14,GGTGGCACGTGTGACT,0
15,ACGATCACGTGTGGAG,0.22
16,ACTGTCACGTGTAGGT,0.07
17,TATTTCACGTGTTGGC,0.4
18,CACTTCACGTGGTGGG,0.25
19,AGTAACACGTGAGGTT,0.23
20,GCCGACACGTGTTGGG,0.07
21,GTGTACACGTGTTAAG,0.11
22,TCGGTCACGTGGAATT,0.43
23,TTAATCACGTGGGTAA,0.13
24,ATAAACACGTGTGATG,0.07
25,ACTTGCACGTGGGGGA,-0.05
26,GGAGGCACGTGTATGA,-0.17

row,Sequence,relative binding free energy [kcal/mol]
1,GCTTGCACGTGCAGTG,0.02
2,GGTGACACGTGGTCGT,0.01
3,TTAATCACGTGCGTGA,0.13
4,CTTGTCACGTGCGGCG,0.05
5,TAATGCACGTGAAATT,0.2
6,CTGGTCACGTGGCGAT,0.18
7,TGTTGCACGTGTCGGG,0.08
8,AGAAGCACGTGGCGGG,-0.22
9,GCTGGCACGTGGCGGA,-0.19
10,TTGGACACGTGGGAAT,0.04
11,GCTGGCACGTGGGAAT,-0.14
12,GGATTCACGTGTAGGT,0.2
13,CATGGCACGTGGTTTT,-0.26
14,AGGTCCACGTGTCGGG,0.04
15,TGGCCCACGTGGTATT,-0.16
16,GGGTGCACGTGTGTTA,0.12
17,CTTAGCACGTGGTGCA,-0.14
18,ATCGTCACGTGGCGGA,0.09
19,TCCGTCACGTGAGGGT,0.24
20,CGGGGCACGTGGTGCC,-0.07
21,TGGCACACGTGTGTTT,0.02
22,TTAGTCACGTGTATTT,0.13
23,TGAGGCACGTGTATTG,-0.02
24,TATATCACGTGAGGTT,0.29
25,AGGGTCACGTGCCGGG,-0.06
26,GTAGCCACGTGTGGTA,0.02

row,Sequence,relative binding free energy [kcal/mol]
1,GCGGTCACGTGTTTAG,0.1
2,TCTTGCACGTGTTTTC,0.04
3,TAATACACGTGAGGCT,0.33
4,GGTAGCACGTGGATTC,0.09
5,ACTGGCACGTGTGTCT,-0.08
6,TGATGCACGTGCGTTG,0.01
7,GTGCTCACGTGCGGTG,0.25
8,AGGCTCACGTGGAGTG,0.04
9,CTGAGCACGTGTGTGT,-0.07
10,AATTTCACGTGCGGCT,0.3
11,GTCCGCACGTGGGGGT,-0.29
12,AGTTTCACGTGCGGCG,0.1
13,CGTGACACGTGTAGGT,0.08
14,GATGCCACGTGGGTTA,-0.09
15,CTTCTCACGTGTATGT,0.21
16,GTGATCACGTGGGAGT,0.11
17,ACATTCACGTGGGGTA,0.1
18,TTGGACACGTGACGGT,0.13
19,TGGAGCACGTGAGTCG,0.19
20,AGAAGCACGTGGAGTT,0.06
21,TGCGACACGTGAGTGT,0.2
22,TTATCCACGTGGATGG,-0.07
23,AAGGGCACGTGTGATT,-0.12
24,TGTGCCACGTGAATAT,0.3
25,GATAGCACGTGGTTAA,-0.04
26,AGATGCACGTGTTGTT,0.05

row,Sequence,relative binding free energy [kcal/mol]
1,TTAGGCACGTGCTAGT,-0.25
2,CTAAGCACGTGTAGTT,-0.06
3,GGTCGCACGTGATTTG,0.24
4,TATAGCACGTGTCTAG,0.02
5,ATGCTCACGTGGAATG,0.29
6,ATTGACACGTGGATAA,0.13
7,CTATGCACGTGTAGGG,-0.05
8,GGAGCCACGTGTTTGG,-0.02
9,GTTTCCACGTGGTTTA,0.1
10,TTGTACACGTGGTAGG,-0.03
11,GATTTCACGTGACGGT,0.34
12,GTTTCCACGTGGGCGG,0.07
13,TTGCCCACGTGGTTGG,-0.08
14,TACAGCACGTGGTGGT,-0.24
15,CTGTTCACGTGATCTG,0.34
16,TTGAACACGTGAGGTG,0.23
17,ATTACCACGTGTTTTT,-0.08
18,GTATGCACGTGTGAGG,0.01
19,ATGTGCACGTGGCCGT,0
20,TGTCACACGTGCGTTG,0.02
21,TTTTACACGTGTCGGG,0.14
22,TAGTTCACGTGTAACT,0.24
23,AGGCGCACGTGTTAAG,0
24,TTTTCCACGTGTATTT,0.02
25,TCGTGCACGTGGGTGA,-0.15
26,TGGGGCACGTGGAGTC,-0.02

row,Sequence,relative binding free energy [kcal/mol]
1,TAATTCACGTGGAAAG,0.49
2,GGTGACACGTGGGCAA,-0.03
3,ATTTGCACGTGCCGTT,0.02
4,CTGGTCACGTGTGGCT,0.13
5,GGGGGCACGTGAGGCG,0.1
6,TAAGTCACGTGTACTT,0.15
7,TTAGCCACGTGTTGTA,-0.11
8,GGGTGCACGTGCCGTG,-0.04
9,GTGGTCACGTGACTTT,0.22
10,AGGTTCACGTGCTAGA,0.38
11,GTACACACGTGTGTTG,0.08
12,TGGTTCACGTGCCGGC,0.28
13,CGATTCACGTGGTATA,0.23
14,TGCGGCACGTGGTGTA,-0.2
15,TGACGCACGTGGTAAG,0.04
16,TTGGACACGTGTAAAG,0.19
17,ATATACACGTGTGTAG,0.13
18,CATTACACGTGCGGGT,0.17
19,GGTGGCACGTGTGCCG,-0.03
20,GTAGACACGTGGGTGC,-0.05
21,ACGTTCACGTGGGGTA,0.04
22,GGCCTCACGTGTGGGA,0.24
23,TGCTGCACGTGATTGT,0.35
24,AGGTGCACGTGCAAGT,-0.07
25,TATGTCACGTGGCTAT,0.01
26,CGGATCACGTGATGGG,0.4

row,Sequence,relative binding free energy [kcal/mol]
1,TCGTACACGTGTTTAT,0.06
2,AATGGCACGTGATTTT,0.12
3,GGTGGCACGTGAATAA,0.09
4,ATTTACACGTGCGCGG,0.02
5,GTTGACACGTGATTAT,0.12
6,TTTTTCACGTGCTAGT,0.28
7,AAGTACACGTGATGAG,0.17
8,GGACGCACGTGGGCGG,-0.31
9,ATGTTCACGTGGTGAC,0.28
10,ATATGCACGTGTGGAG,-0.07
11,GTTTACACGTGGAAAT,0.29
12,AGTAGCACGTGCTTGT,-0.2
13,TGTCACACGTGTGAGG,0.1
14,TTTTTCACGTGTGCCG,0.28
15,GTGGTCACGTGGACAG,0.01
16,GATATCACGTGATTTT,0.34
17,AGATTCACGTGCGGGT,0.17
18,GTGCTCACGTGACGTG,0.38
19,TTCACCACGTGTGGGG,-0.02
20,TGGTTCACGTGTCGTG,0.22
21,AGGATCACGTGGTTAC,0.12
22,TTTTGCACGTGGGGGA,-0.12
